We go through two molecules from article PMC1557994.

These are yes or no findings as the source states them, for the method shown. Some binding calls cover weakened binding; strength is not graded here.

Experiment in all cases: peptide or protein array; 4,088 GST-tagged yeast proteins printed in duplicate on nitrocellulose-coated glass slides; probed with 50 uM biotinylated WW domain fusion protein in PBS on ice (cold room, 4 C) for 90 minutes; detected with Alexa Fluor 647-streptavidin; positive: counts more than three standard deviations above the trimmed mean of the block, in duplicate on two arrays; both purified

In experiment [1] the target is T1, Bcy1, a regulatory subunit of cAMP-dependent protein kinase A (S. cerevisiae) (UniProt P07278).
T1 sequence: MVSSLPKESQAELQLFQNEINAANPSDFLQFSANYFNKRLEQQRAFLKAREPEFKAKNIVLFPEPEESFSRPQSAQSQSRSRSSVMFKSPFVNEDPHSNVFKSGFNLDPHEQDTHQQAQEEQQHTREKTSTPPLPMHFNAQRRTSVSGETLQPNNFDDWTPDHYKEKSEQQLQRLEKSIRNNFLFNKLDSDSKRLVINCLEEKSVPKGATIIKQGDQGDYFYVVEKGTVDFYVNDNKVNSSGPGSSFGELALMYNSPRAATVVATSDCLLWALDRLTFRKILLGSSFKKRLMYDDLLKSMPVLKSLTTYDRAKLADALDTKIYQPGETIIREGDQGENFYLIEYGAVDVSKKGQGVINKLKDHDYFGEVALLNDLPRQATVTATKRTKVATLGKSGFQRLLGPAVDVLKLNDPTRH

The target of another experiment is T2, Ypt53 (S. cerevisiae) (UniProt P36019).
T2 sequence: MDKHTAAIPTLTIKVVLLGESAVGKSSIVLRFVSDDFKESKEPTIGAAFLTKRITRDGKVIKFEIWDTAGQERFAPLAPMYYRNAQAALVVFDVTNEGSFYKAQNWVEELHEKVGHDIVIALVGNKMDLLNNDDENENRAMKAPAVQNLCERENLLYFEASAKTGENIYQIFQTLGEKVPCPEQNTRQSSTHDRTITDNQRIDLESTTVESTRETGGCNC

The target in experiment [2] is T3, Prp2, a DEAD-box RNA-dependent ATPase (S. cerevisiae) (UniProt P20095).
T3 sequence: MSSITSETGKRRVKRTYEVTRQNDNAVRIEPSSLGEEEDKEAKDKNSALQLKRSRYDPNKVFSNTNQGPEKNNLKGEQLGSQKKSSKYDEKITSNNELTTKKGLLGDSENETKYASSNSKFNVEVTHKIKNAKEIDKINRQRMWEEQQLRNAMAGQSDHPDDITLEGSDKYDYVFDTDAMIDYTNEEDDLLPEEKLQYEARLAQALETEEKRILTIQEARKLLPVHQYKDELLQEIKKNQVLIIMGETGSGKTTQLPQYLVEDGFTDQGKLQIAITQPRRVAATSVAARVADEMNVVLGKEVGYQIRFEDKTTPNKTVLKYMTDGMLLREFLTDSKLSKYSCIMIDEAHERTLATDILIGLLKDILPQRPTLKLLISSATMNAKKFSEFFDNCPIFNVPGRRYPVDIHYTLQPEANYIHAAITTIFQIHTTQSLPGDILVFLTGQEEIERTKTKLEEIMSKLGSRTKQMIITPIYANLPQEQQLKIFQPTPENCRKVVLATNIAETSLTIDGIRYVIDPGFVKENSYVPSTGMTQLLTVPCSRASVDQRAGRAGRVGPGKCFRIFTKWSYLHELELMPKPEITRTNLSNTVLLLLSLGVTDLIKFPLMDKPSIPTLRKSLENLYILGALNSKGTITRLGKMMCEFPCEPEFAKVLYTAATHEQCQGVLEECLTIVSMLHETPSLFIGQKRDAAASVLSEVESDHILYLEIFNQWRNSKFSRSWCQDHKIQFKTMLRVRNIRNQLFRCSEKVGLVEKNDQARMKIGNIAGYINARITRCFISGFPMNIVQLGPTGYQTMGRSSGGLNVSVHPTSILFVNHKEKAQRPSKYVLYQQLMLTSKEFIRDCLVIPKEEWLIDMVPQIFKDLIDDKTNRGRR

The target of experiment [3] is T4, Wwm1 (protein on the microarrays) (S. cerevisiae) (UniProt P43582).
T4 sequence: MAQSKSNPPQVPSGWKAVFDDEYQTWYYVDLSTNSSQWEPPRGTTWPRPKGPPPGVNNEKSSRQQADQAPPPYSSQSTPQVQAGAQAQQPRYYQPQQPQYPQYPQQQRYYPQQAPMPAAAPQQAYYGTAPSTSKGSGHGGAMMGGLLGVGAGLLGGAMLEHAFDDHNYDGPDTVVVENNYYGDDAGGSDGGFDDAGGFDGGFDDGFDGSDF

Experiment [4] concerns the target T5, Pai3, the cytoplasmic inhibitor of yeast saccharopepsin (S. cerevisiae) (UniProt P01094).
T5 sequence: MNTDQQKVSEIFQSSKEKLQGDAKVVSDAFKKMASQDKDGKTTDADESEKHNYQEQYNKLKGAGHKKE

B1: WW domain from Ess1 (domain or fragment, UniProt P22696 9-43)
chain: TGLPTPWTVRYSKSKKREYFFNPETKHSQWEEPEG
modifications: biotin (NHS-LC-LC-biotin, amine-reactive)
Regarding B1, the binding result (in experiment [1]; with Ypt53 (S. cerevisiae); in experiment [2]) was “binds” each time.

B2: Wwm1 WW domain probe (domain or fragment, UniProt P43582 9-43)
chain: PQVPSGWKAVFDDEYQTWYYVDLSTNSSQWEPPRG
modifications: biotin (NHS-LC-LC-biotin, amine-reactive)
Take B2: the binding entry in experiment [3] is given as “no binding (tested: 50 μM)”; in experiment [4], “binds”.
